# Measured values reported in publication PMC12136788.
# Some of the results follow.
# T1: UNK ZnF1-3 (human, UniProt Q9C0B0 31-174)
# T1 sequence: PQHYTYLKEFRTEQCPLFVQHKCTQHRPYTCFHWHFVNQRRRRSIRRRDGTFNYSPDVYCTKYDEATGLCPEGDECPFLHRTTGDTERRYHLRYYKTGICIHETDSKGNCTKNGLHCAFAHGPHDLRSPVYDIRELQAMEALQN
# B1: chr17:57752078:57752079:+_ENSG00000141367_ENST00000269122|hu_mus|FALSE|FALSE (ssRNA)
# RNA: GGGAGUUCUACAGUCCGACGAUCAAUCAAAUUUUUAAUGACAUCUUCAGAGCAGUCAACAUCCAGCAAUCCUCCAAUAACCACAGGAAGUCGACUUGGAUUUACCUUCUGGACAUAUAUCUCUAUAUACUUCUGAAGAUUGUUCAACAGAGGAUUGAGCAUCA
# B2: chr7:35913284:35913285:+_ENSG00000122545_ENST00000399035|perfect_dup|motif|central (ssRNA)
# RNA: GGGAGUUCUACAGUCCGACGAUCAUCAGGCAUCUGACGUCUGUUCACUCGAGAUUCUGCAUUUAAGUAAUCUUCAAAUUUACGGUCAAUGUAGUCGAUAACAGGCUGCCAGCAAUUACUAUUAUCCACUGCAUCUCCAAAUCCCAACAGAGGAUUGAGCAUCA
# B3: chr22:19452774:19452775:-_ENSG00000070010_ENST00000399523|hu_hu|hu_hu_hu_mus_False|18_38 (ssRNA)
# RNA: GGGAGUUCUACAGUCCGACGAUCCUUCUCAUUGUAGUUGAUAGCAAUCACAUCUCCAGUCGUCAGACAGGCGAAGUUUCUCAAUGCAUUUUCUAAUACGGCUUUGGGGUUGGUAAUGUCCAGGAAGUCUGGGCUCUGAGGCUGCAACAGAGGAUUGAGCAUCA
# B4: chrX:71549762:71549763:+_ENSMUSG00000019087_ENSMUST00000019231|mus_mus|mus_mus_mus_hu_False|18_108 (ssRNA)
# RNA: GGGAGUUCUACAGUCCGACGAUCAAAGUGUACCACUUCUUAUUGUUAGCACAACAUCACCAGAAAACGAUAACGACAGCCAAGCAGGACAGACAGUUAAGUAGUACUUCCACACUCCGCAAAUUCAGGAGCCCUAUAACCUUACAACAGAGGAUUGAGCAUCA
# B5: chr4:25749455:25749456:-_ENSG00000091490_ENST00000264868|hu_hu|hu_hu_hu_mus_False|28_48 (ssRNA)
# RNA: GGGAGUUCUACAGUCCGACGAUCGCACUAUGACCUCUAGAAAAAUCCACAGGGGGAAAAAAUGUAAACCAAUGUACAAUGUUAUCGCCCUCCCUGCGUGUGGAGUGACAAACAAUUGGCUCCUUCUAGCUGCUGGAUUUGGGACAACAGAGGAUUGAGCAUCA
# B6: chr3:131220538:131220539:-_ENSG00000114686_ENST00000264995|hu_hu|motif|central (ssRNA)
# RNA: GGGAGUUCUACAGUCCGACGAUCUUCUUCAGAAAGAUGCUCAUCCCACCAUGUACCACUCUUUCCAUGAAGACCUCGGACAAAAAGCCAGAUGUGUGUUCUGUUCCCCGGGCCCAGGGCAGCACCCAGGCCGUCCCCGAGUCGCAACAGAGGAUUGAGCAUCA
# B7: chr1:39494564:39494565:+_ENSG00000168653_ENST00000372967|hu_hu|hu_hu_hu_mus_True|1_58 (ssRNA)
# RNA: GGGAGUUCUACAGUCCGACGAUCAUGCAUUCGCCUCAUCGUUUUGUACCGAAGCAAGCACUCUUCGAAGUCAUCGAAUUCUAUCUUGCACUCCUUUUUCGCCCGGGUCCCACCGAUCCCGUGUGCACACUCUAUCCAUUCUUUCAACAGAGGAUUGAGCAUCA
# B8: 33966644_33966764_1915_CDS_ENSG00000006125_ENST00000262325|human|control|control (ssRNA)
# RNA: GGGAGUUCUACAGUCCGACGAUCGUGAAAACCCUCCAGGAAGCUUUCUAGUAACUCAUCUGCAUUGUCAAUUCUUUCAGCAUAUUCUCCCACAAUCCAAAUCAUAGCUGCUCGAGCAUCUGGCUCAUCCAGCGAGUCUAAGUUCAACAGAGGAUUGAGCAUCA
# B9: chr18:67804014:67804015:+_ENSMUSG00000024537_ENSMUST00000025418|mus_mus|FALSE|FALSE (ssRNA)
# RNA: GGGAGUUCUACAGUCCGACGAUCGCAAUCAGUAUAGAAAUAACCAAUCUUACACAUGUUCAGUGUAGAAAUAAUCAGAUCUAUUGCAAGCUGGCCAACAUUUCCAACGGAUACUGCUGGCAUCAGGAGUGUAAAGUUCGUUAGCAACAGAGGAUUGAGCAUCA
# B10: chr4:115894766:115894767:+_ENSMUSG00000028698_ENSMUST00000030464|mus_hu|mus_mus_mus_hu_True|1_38 (ssRNA)
# RNA: GGGAGUUCUACAGUCCGACGAUCUUCCACACGGAAAUGUACUUCGGGUUUUCCAACGGCCAGUACCAGUCCGGCCAAACUACCCGAACAGGGUCCUGUCCUCCUCUCCUACAGAACACAACAAAAUGCCCCCGAACCCCGAACCAACAGAGGAUUGAGCAUCA
# B11: 12266551_12270795_3497_CDS_ENSMUSG00000064127_ENSMUST00000096495|mouse|control|control (ssRNA)
# RNA: GGGAGUUCUACAGUCCGACGAUCAGCCCCACUGGGGGAGCUGGCAGCAUGCAGAUUUCCUGGAGACUGUGUGUGCAUCAUAGAGGGGGACUGAUUAACUGUGCUGUGAUAGGAUGUAGGGGGUGAAGUAAGAGGGUAAGCGCCCAACAGAGGAUUGAGCAUCA
# B12: 178301539_178301754_695_CDS_ENSG00000018510_ENST00000264167|human|control|control (ssRNA)
# RNA: GGGAGUUCUACAGUCCGACGAUCCUCAAACAUUCCUUCCCUGAGCAAAAAUAUCUCAUGAAGACAAUGACCAUGAGCUCUAAAUACUCGAUCAUCUGCCUCUUGUGAAUAUGAAAUAUUAGUUUCUUUAAGGUCAUGAAGAAACAACAGAGGAUUGAGCAUCA
# B13: chr5:36862001:36862002:-_ENSMUSG00000029192_ENSMUST00000171385|mus_hu|FALSE|FALSE (ssRNA)
# RNA: GGGAGUUCUACAGUCCGACGAUCAAUGGCUAAGCUCCAGACUUUGCCUCUCACACUUGGAGGGAUUCCCUGCCACCAUAAAUCUCGAACUUUUCUAGAGCACCACAUUGUUUCCCAGUUAGGUAAGAUCUCAUUAUUCCAGGUCAACAGAGGAUUGAGCAUCA
# B14: chr2:47387770:47387771:-_ENSG00000143933_ENST00000272298|hu_mus|hu_hu_hu_mus_True|8_8 (ssRNA)
# RNA: GGGAGUUCUACAGUCCGACGAUCAAGGUUUAAGGACAAUGACAGUAAGAUAAGGGAAGAAAACAUGGAGGAAUGAAGUCCUAAUUACUAUACAUGCAUAUUUUUUGACAGUAGGGGGGGGGAACCUUACAGAUAAGAGUUACACAACAGAGGAUUGAGCAUCA
# Target: T1, UNK ZnF1-3
# Assay: nsRBNS (natural sequence RNA bind-n-seq); RBNS binding buffer (assumed for nsRBNS): 25 mM Tris pH 7.5, 150 mM KCl, 3 mM MgCl2, 0.01% Triton X-100, 500 ug/ml BSA, 20 U/ml SUPERase-In, 4 C; UNK is unkempt and MSI1 is Musashi-1; names of the RNAs are library labels; protein concentration not given here; high values mean tight binding
row,Binder,binding signal [enrichment R]
1,B1,0.639
2,B2,1.1
3,B3,0.73
4,B4,1.52
5,B5,1.06
6,B6,1.34
7,B7,0.694
8,B8,1.07
9,B9,0.804
10,B10,1.11
11,B11,2.54
12,B12,1
13,B13,1.16
14,B14,2.53
